{"source": "paper PMC4336329", "about": "(PLoS ONE, 2015)", "note": "Out of some 310,000 compounds screened, about 14,000 (4.5%) showed an effect of 50% or more. Effects have a minus sign here. This is one part of the list.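 Also: peak tail current of the secondary pulse compared with the same well before compound.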"}
{"molecular_target": "human ether-à-go-go-related gene (hERG) potassium channel (human, UniProt Q12809)", "sequence (Q12809 whole entry, looked up)": "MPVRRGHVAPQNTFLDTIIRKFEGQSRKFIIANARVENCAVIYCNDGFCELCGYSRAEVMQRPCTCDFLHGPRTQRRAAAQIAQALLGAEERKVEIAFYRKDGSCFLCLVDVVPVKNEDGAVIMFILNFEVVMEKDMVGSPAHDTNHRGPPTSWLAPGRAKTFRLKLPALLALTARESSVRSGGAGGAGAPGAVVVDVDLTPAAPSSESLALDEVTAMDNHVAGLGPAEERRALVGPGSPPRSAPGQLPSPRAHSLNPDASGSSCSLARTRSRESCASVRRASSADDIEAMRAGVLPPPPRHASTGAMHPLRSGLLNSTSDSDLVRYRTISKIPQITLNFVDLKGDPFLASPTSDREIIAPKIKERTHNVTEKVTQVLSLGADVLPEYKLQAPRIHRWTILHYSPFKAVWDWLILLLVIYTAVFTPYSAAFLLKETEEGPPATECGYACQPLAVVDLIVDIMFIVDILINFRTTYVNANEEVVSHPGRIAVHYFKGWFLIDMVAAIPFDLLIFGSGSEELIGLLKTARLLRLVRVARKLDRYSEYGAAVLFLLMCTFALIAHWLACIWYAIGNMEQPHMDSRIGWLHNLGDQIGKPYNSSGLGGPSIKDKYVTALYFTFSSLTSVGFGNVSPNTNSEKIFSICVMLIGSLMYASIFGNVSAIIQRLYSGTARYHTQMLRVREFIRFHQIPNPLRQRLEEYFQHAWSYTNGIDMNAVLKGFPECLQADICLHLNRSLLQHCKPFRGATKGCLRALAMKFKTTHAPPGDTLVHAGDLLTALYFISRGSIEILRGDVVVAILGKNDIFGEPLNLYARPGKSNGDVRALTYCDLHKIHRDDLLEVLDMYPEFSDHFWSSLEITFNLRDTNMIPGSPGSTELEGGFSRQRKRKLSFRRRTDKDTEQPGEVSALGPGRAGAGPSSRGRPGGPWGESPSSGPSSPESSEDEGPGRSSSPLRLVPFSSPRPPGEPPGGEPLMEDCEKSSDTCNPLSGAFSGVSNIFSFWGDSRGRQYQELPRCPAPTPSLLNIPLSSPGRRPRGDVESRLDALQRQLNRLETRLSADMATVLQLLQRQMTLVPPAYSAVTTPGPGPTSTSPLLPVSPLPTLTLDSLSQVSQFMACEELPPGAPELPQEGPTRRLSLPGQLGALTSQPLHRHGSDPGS", "assay": "primary screen, population patch clamp on CHO cells stably expressing hERG", "units": {"hERG current change (%, negative = inhibition) at 10uM": "%"}}
{"smiles": "COc1ccc(NC(=O)CSc2nccn2Cc2ccccc2)cc1", "hERG current change (%, negative = inhibition) at 10uM": -4.86}
{"smiles": "O=C(O)CC(c1ccccc1)N1C(=O)c2cccc([N+](=O)[O-])c2C1=O", "note": "(centres unmarked)", "hERG current change (%, negative = inhibition) at 10uM": 22.8}
{"smiles": "Br.CCO.NCCCCCC(=O)OC1N=C(c2ccccc2Cl)c2cc(Br)ccc2NC1=O", "note": "(centres unmarked)", "hERG current change (%, negative = inhibition) at 10uM": -11.6}
{"smiles": "O=C(CSc1nnc(NC(=O)c2ccccc2F)s1)NC1CC1", "hERG current change (%, negative = inhibition) at 10uM": 19.2}
{"smiles": "Cc1cc(S(=O)(=O)N(Cc2ccc(F)cc2)CC2CCCO2)ccc1-n1cnnn1", "note": "(centres unmarked)", "hERG current change (%, negative = inhibition) at 10uM": -47.6}
{"smiles": "CC1(c2ccccc2)NC(=O)N(CC(=O)Nc2cc(Cl)ccc2N2CCOCC2)C1=O", "note": "(centres unmarked)", "hERG current change (%, negative = inhibition) at 10uM": -12}
{"smiles": "CCCNc1ncccc1C(N)=O", "hERG current change (%, negative = inhibition) at 10uM": 7.62}
{"smiles": "O=CNc1ccc(S(=O)(=O)NCc2ccccc2)cc1", "hERG current change (%, negative = inhibition) at 10uM": -26.1}
{"smiles": "CCN(Cc1ccccc1)C(=O)CN1C(=S)NC(C)(C)CC1C", "note": "(centres unmarked)", "hERG current change (%, negative = inhibition) at 10uM": -30.5}
{"smiles": "CCOC(=O)C1(C(=O)OCC)CC1c1ccccc1", "note": "(centres unmarked)", "hERG current change (%, negative = inhibition) at 10uM": 3.98}
{"smiles": "O=C1CN(C(=O)CSc2nc3cc(Cl)ccc3c(=O)n2Cc2ccccc2)c2ccccc2N1", "hERG current change (%, negative = inhibition) at 10uM": -7.33}
{"smiles": "CN1CCN(C(=S)c2cn(CCOc3ccccc3F)c3ccccc23)CC1", "hERG current change (%, negative = inhibition) at 10uM": 7.01}
{"smiles": "O=C(CN1C(=O)CSc2ccc(S(=O)(=O)N3CCOCC3)cc21)NCCCN1CCCCC1", "hERG current change (%, negative = inhibition) at 10uM": 18}
{"smiles": "CC(=O)NC1c2ccccc2C(=O)N1Cc1ccccc1", "note": "(centres unmarked)", "hERG current change (%, negative = inhibition) at 10uM": -8.06}
{"smiles": "CCc1noc(C)c1C(=O)Nc1ccc(S(=O)(=O)N2CCCC(C)C2)cc1", "note": "(centres unmarked)", "hERG current change (%, negative = inhibition) at 10uM": -12.1}
{"smiles": "Cc1ccc(C)c(NC(=O)C2CC(Cl)=CCC2C(=O)O)c1", "note": "(centres unmarked)", "hERG current change (%, negative = inhibition) at 10uM": 5.5}
{"smiles": "O=C(N/N=C/c1cccc(OC(=O)c2ccco2)c1)c1ccc(F)cc1", "hERG current change (%, negative = inhibition) at 10uM": -8.56}
{"smiles": "Cc1cccc(C)c1NC(=O)C1(NC(=O)c2cnccn2)CCCCC1", "hERG current change (%, negative = inhibition) at 10uM": 14.4}
{"smiles": "COc1ccccc1NC(=O)C(C)N1C(=O)C2CCCCC2C1=O", "note": "(centres unmarked)", "hERG current change (%, negative = inhibition) at 10uM": 14.1}
{"smiles": "CC(=O)N(C)c1ccc(NC(=O)c2ccc([N+](=O)[O-])cc2Cl)cc1", "hERG current change (%, negative = inhibition) at 10uM": -13.5}
{"smiles": "COc1ccc(CCN2C(=O)CSC2=Nc2ccc(C)cc2C)cc1OC", "hERG current change (%, negative = inhibition) at 10uM": 14.9}
{"smiles": "COc1ccc(N2C(=O)C3CCCN3C2c2cc(OC)c(OC)cc2OC)cc1", "note": "(centres unmarked)", "hERG current change (%, negative = inhibition) at 10uM": -4.23}
{"smiles": "NC1=NC(=O)C2(COC(c3cccnc3)OC2)S1", "note": "(centres unmarked)", "hERG current change (%, negative = inhibition) at 10uM": 17.9}
{"smiles": "Cc1ccc(CNc2cccnc2)cc1", "hERG current change (%, negative = inhibition) at 10uM": 2.23}
{"smiles": "COc1cc(/C=C(/NC(=O)c2ccccc2Cl)C(=O)O)cc(OC)c1OC", "hERG current change (%, negative = inhibition) at 10uM": 21.9}
{"smiles": "CCOc1ccc(NC(=O)CN(C)C(=O)c2cc(-c3ccc(OC)cc3)nc3ccccc23)cc1OCC", "hERG current change (%, negative = inhibition) at 10uM": -2.15}
{"smiles": "CCOC(=O)c1c(NC(=O)CN2CCN(c3ccc(Cl)cc3)CC2)sc(C)c1C", "hERG current change (%, negative = inhibition) at 10uM": -14.9}
{"smiles": "O=C(O)c1cc2c(ccc3ccccc32)o1", "hERG current change (%, negative = inhibition) at 10uM": 4.33}
{"smiles": "CCC(C)C(=O)N1CCCC(c2nc(-c3cccs3)no2)C1", "note": "(centres unmarked)", "hERG current change (%, negative = inhibition) at 10uM": 5.17}
{"smiles": "CN(C(=O)COC(=O)c1cc2c(s1)CCCCC2)C1CCS(=O)(=O)C1", "note": "(centres unmarked)", "hERG current change (%, negative = inhibition) at 10uM": -7.88}
{"smiles": "O=C(Nc1nccs1)c1cc2sccc2n1Cc1ccc(F)cc1", "hERG current change (%, negative = inhibition) at 10uM": -2.56}
{"smiles": "O=C(NCc1ccccn1)c1cn(CCc2ccccc2)nn1", "hERG current change (%, negative = inhibition) at 10uM": 16}
{"smiles": "COc1ccccc1CN1C(=O)c2ccncc2C1=O", "hERG current change (%, negative = inhibition) at 10uM": -18.8}
{"smiles": "CCOC(=O)C1=C(C)N=c2s/c(=C\\c3ccc(C(=O)O)cc3)c(=O)n2C1c1ccc(OC)cc1OC", "note": "(centres unmarked)", "hERG current change (%, negative = inhibition) at 10uM": 0.835}
{"smiles": "CCCCNC(=O)c1ccccc1NC(=O)CN(c1ccccc1)S(=O)(=O)N(C)C", "hERG current change (%, negative = inhibition) at 10uM": 1.49}
{"smiles": "COc1ccc(C/C(N)=N/OC(=O)c2cccc([N+](=O)[O-])c2)cc1", "hERG current change (%, negative = inhibition) at 10uM": -44.2}
{"smiles": "CC(C)COP(=O)(c1ccc(N(C)C)cc1)C(O)c1ccc(N(C)C)cc1", "note": "(centres unmarked)", "hERG current change (%, negative = inhibition) at 10uM": 15.9}
{"smiles": "CCOC(=O)Cn1c2c(c(=N)c3c1CCC3)CCCC2.Cl", "hERG current change (%, negative = inhibition) at 10uM": 18.5}
{"smiles": "CC(C)c1c(C(=O)N/N=C/c2cccc(OCc3ccccc3)c2)nnn1-c1nonc1N", "hERG current change (%, negative = inhibition) at 10uM": 26.6}
{"smiles": "O=C(N/N=C/c1ccc(OCc2ccc(F)cc2)cc1)c1ccccc1", "hERG current change (%, negative = inhibition) at 10uM": 12.6}
{"smiles": "COc1ccc(/C=N/Nc2cc(C)nc(NS(=O)(=O)c3ccc(C)cc3)n2)cc1", "hERG current change (%, negative = inhibition) at 10uM": -17.5}
{"smiles": "O=C(O)C1CCCCC1C(=O)Nc1cc(Cl)ccc1Cl", "note": "(centres unmarked)", "hERG current change (%, negative = inhibition) at 10uM": 10.3}
{"smiles": "COc1cccc(NC(=O)Nc2ccccc2C(N)=O)c1", "hERG current change (%, negative = inhibition) at 10uM": 1.99}
{"smiles": "CCN(CC)S(=O)(=O)c1cccc(-c2nnc(SCCCC(=O)c3ccccc3)o2)c1", "hERG current change (%, negative = inhibition) at 10uM": -23.8}
{"smiles": "Cc1cccc(N2CCN(S(=O)(=O)c3c(C)[nH]c(C)c3C(=O)N3CCCCC3)CC2)c1C", "hERG current change (%, negative = inhibition) at 10uM": 0.772}
{"smiles": "Cc1ccc(C)c(N2N=C(C(=O)OCc3nnc(-c4ccccc4)o3)CCC2=O)c1", "hERG current change (%, negative = inhibition) at 10uM": -5.45}
{"smiles": "O=C(COc1ccc(-n2cnnn2)cc1)NC(=O)NCc1ccccc1", "hERG current change (%, negative = inhibition) at 10uM": -34.1}
{"smiles": "O=C(OCC(O)COC(=O)c1cccnc1)c1cccnc1", "hERG current change (%, negative = inhibition) at 10uM": 15.5}
{"smiles": "Cc1ccc(C(=O)NNC(=O)COc2ccc(Cl)cc2C)o1", "hERG current change (%, negative = inhibition) at 10uM": -57.6}
{"smiles": "COc1ccc(S(=O)(=O)N2CCOC2CNC(=O)C(=O)NCCc2c[nH]c3ccccc23)cc1", "note": "(centres unmarked)", "hERG current change (%, negative = inhibition) at 10uM": -17.9}
{"smiles": "Cc1c(Cl)c([N+](=O)[O-])nn1CC(=O)NCc1ccco1", "hERG current change (%, negative = inhibition) at 10uM": 1.49}
{"smiles": "Cc1nc2ccccc2c(=O)n1CCCO", "hERG current change (%, negative = inhibition) at 10uM": 7.75}
{"smiles": "Cc1cccc(-c2noc(CNC(=O)c3ccoc3C)n2)c1", "hERG current change (%, negative = inhibition) at 10uM": 1.72}
{"smiles": "Cn1ncc(C#N)c1/N=C/N1CCCCCC1", "hERG current change (%, negative = inhibition) at 10uM": -2.33}
{"smiles": "COCCNC(=O)CN1C(=O)NC(c2ccccc2)(c2ccccc2)C1=O", "hERG current change (%, negative = inhibition) at 10uM": -2.7}
{"smiles": "Cc1ccnc(NS(=O)(=O)c2ccc(Cl)nc2)c1", "hERG current change (%, negative = inhibition) at 10uM": 6.59}
